Reference: article PMC9574860, “Chemical Toolkit for PARK7: Potent, Selective, and High-Throughput” (Journal of Medicinal Chemistry, 2022)
Screen size: about 7,900 compounds; about 400 (5.1%) showed an effect of 50% or more. Some of the results follow.

target: Parkinson's disease protein 7 (PARK7/DJ1) (human, UniProt Q99497); experiment: primary screen, percent inhibition; read as competition with a fluorescent probe by fluorescence polarization; higher = more effect of the substance; details: 100 µM
Outline: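 Covalent fragments at 100 μM final were incubated 2 h with 0.2 μM PARK7, then 20 nM probe JYQ-107 added for a further 2 h. Fluorescence polarization read at 480/520 nm; relative FP loss versus reference controls gave remaining enzyme activity.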

Parkinson's disease protein 7 (PARK7/DJ1), sequence (Q99497 whole entry, looked up, the tested form may be a part): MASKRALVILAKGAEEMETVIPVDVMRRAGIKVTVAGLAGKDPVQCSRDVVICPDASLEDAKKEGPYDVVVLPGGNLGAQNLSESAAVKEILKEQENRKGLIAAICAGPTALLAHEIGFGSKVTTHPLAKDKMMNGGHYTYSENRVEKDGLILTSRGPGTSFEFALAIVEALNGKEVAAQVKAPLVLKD

Point of comparison: `O=C(C=Cc1cnc2ccccc2n1)N1CCCCC1`, Inhibition % 9.55%. Against it:
- CCC1SC(=C(C#N)C(N)=O)N(c2ccc(F)cc2)C1=O (centres unmarked) — lower, 5.28%
- CC(CNc1nccnc1C#N)Cc1cccs1 (centres unmarked) — lower, 2.1%
- CS(=O)(=O)C(C#N)=Cc1cccc(C(F)(F)F)c1 — lower, 9.43%
- C=CC(=O)Nc1cnc2[nH]ccc2c1 — higher, 14.2%
- C=CC(=O)NCC1C(C)(C)C1(F)F (centres unmarked) — lower, 1.36%
- C=CCN(C(=O)Cn1cnc(C#N)n1)c1ccccc1 — lower, 7.87%
- O=C(CCCl)Nc1ccc(F)cc1 — lower, 5.87%
- N#Cc1ccc(CN2CCCCC2C2OCCO2)cc1 (centres unmarked) — higher, 10.8%
- C=CC(=O)NC1CCN(C(C)C)C1=O (centres unmarked) — lower, 5.41%
- C=CC(=O)N1CCN(Cc2cncs2)CC1 — lower, 8.7%
- N#Cc1c(N)nc2n1CCOC2 — lower, 8.61%
- CCSc1cc(CNc2ccc(C#N)nc2)ccn1 — lower, 6.38%
- O=C1NC(c2ccccc2)C12CC=CC2 (centres unmarked) — lower, 6.25%
- Cc1noc(C)c1CC(C)Nc1ccc(S(=O)(=O)F)cn1 (centres unmarked) — lower, 6.46%
- C=CC(=O)NC(c1ccco1)c1ccccc1OC (centres unmarked) — lower, 3.02%
- C=CC(=O)NCC1CCC(c2ccccc2)O1 (centres unmarked) — higher, 10.6%
- C=CC(=O)N1CCN(C(C)C)c2ccccc2C1 — lower, 5.69%
- C=CC(=O)N1CCc2c(Cl)cccc21 — higher, 13.7%
- CC1(C)OB(c2ccc(N)c(F)c2)OC1(C)C — lower, 1.59%
- Cc1sc(NC(=O)CCl)c(C)c1C — higher, 56.3%
- C=CC(=O)N1C[C@@H](O)C[C@H]1C(=O)OC(C)(C)C — higher, 10.9%
- CSc1cc(C)c(B2OC(C)(C)C(C)(C)O2)cn1 — lower, 5.78%
- COc1ncc(S(=O)(=O)F)cn1 — higher, 31.2%
- Cc1cccc(N2C(=O)CN=C2S)c1 — lower, 2.51%
- COc1c(Br)ccc(F)c1B1OC(C)(C)C(C)(C)O1 — lower, 9.18%
- Cc1ncsc1C=C(C#N)C(=O)NCCc1ccccc1 — lower, 6.72%
- CSc1ccc(C=C(C#N)C(=O)NC(C)C)cc1 — lower, 7.3%
- O=C(CCl)Nc1ccc2c(c1)OCO2 — higher, 46.5%
- C=CC(=O)N1CCN(c2cc(OC)ccn2)CC1 — lower, 9.1%
- CCOc1cccc(CN2C(=O)CCC2=O)n1 — lower, 2.95%
- CC1(C)OB([C@@H]2C[C@H]2N)OC1(C)C.Cl (racemic) — lower, 5.19%
- COCCn1c(S)nc2cc(Cl)ccc2c1=O — lower, 0.512%
- C=CC(=O)N1CC2(CCOCC2)c2ccccc21 — lower, 7.61%
- C=CC(=O)N(C)Cc1cccnc1 — higher, 11.8%
- CCn1ncc(C(=O)CCl)n1 — higher, 87.8%
- C=CC(=O)N(C)C1CCN(c2ccccc2Cl)C1=O (centres unmarked) — lower, 6.51%
- O=C(c1cccs1)N1CCC(S(=O)(=O)F)CC1 — higher, 10.8%
- N#Cc1[nH]cnc1C(F)(F)F — higher, 22.2%
- COc1cc(B2OC(C)(C)C(C)(C)O2)cnc1C#N — lower, 7.43%
- CCOCCCn1c(S)nc2cc(Cl)ccc2c1=O — lower, 9.16%
- O=C(CCl)Nc1ccc2c(c1)OC1(CCCCC1)O2 — higher, 93.3%
- O=C(CCl)N(CC1CCCO1)C1CCS(=O)(=O)C1 (centres unmarked) — lower, 8.57%
- Cc1nn(C)c(Cl)c1C=CC(=O)N1CCC(N)CC1.Cl — higher, 11.2%
- CCn1ccc(=O)nc1S — lower, 1.97%
- Cc1cc(C(=O)Cn2cnc(C#N)n2)c(C)n1C(C)C — higher, 11.7%
- Cc1ccc(NC(=O)CN2CCSC2=O)cc1Cl — lower, 7.62%
- O=C(Nc1cccc(Cl)c1)N1CCC(C2OCCO2)CC1 — lower, 7.17%
- N#CC(C(=O)CCl)c1nc2ccccc2[nH]1 (centres unmarked) — higher, 29.3%
- O=S(=O)(C=Cc1ccc(Cl)cc1)NCC1CCCO1 (centres unmarked) — lower, 6.48%
- CCOc1ccc(Cl)cc1S(=O)(=O)n1nc(C)cc1C — lower, 0.108%
- O=S1(=O)CCC(NS(=O)(=O)C=Cc2ccccc2)C1 (centres unmarked) — lower, 6.88%
- CC1(C)OB(c2ccc(CO)c(N)c2)OC1(C)C — higher, 12.8%
- CC1Cc2ccccc2N1C(=O)CCl (centres unmarked) — lower, 8.22%
- O=C(CCl)NCC1CCN(c2ccccc2)C1 (centres unmarked) — higher, 25.2%
- Cc1csc(Cl)c1NC(=O)CCl — lower, 4.72%
- C=CC(=O)N1CCCn2nnnc21 — lower, 3.91%
- O=C(CCl)NCC1(c2ccccc2)CC1 — higher, 11.9%
- Cn1cc(C(C)(C)C(=O)Nc2cccc(S(=O)(=O)F)c2)cn1 — higher, 88.2%
- N#Cc1cc(NCC2CCCO2)ccn1 (centres unmarked) — lower, -2.52%
- Cc1cccc(F)c1B1OC(C)(C)C(C)(C)O1 — lower, 4.86%
- COC(=O)C(F)(F)c1ccc(B2OC(C)(C)C(C)(C)O2)cc1 — lower, 7.59%
- C=CC(=O)N1CC2(CCC2)c2ccccc21 — lower, 4.37%
- COc1cc([N+](=O)[O-])ccc1NC(=O)CCl — higher, 13.4%
- C=CC(=O)NC[C@@H]1OCCN(C)[C@H]1c1ccccc1 — higher, 12%
- N#Cc1ccc2c(n1)CCCN2 — lower, 0.203%
- C=CC(=O)NCCc1cnc(C2CC2)nc1 — lower, 7.94%
- C=CC(=O)N1CCN(c2cccc(OC(F)F)c2)CC1 — lower, 6.79%
- Cc1nc(C=CC(=O)N2CCCC2)cs1 — lower, 7.3%
- C=CC(=O)N1CCC(c2nc(C(F)(F)F)cs2)CC1 — lower, 4.08%
- CC1(C)OB(c2cccc3c2OCC3)OC1(C)C — higher, 11.2%
- C=CC(=O)N1CC(NC(=O)C(F)(F)F)CCC1C(F)(F)F (centres unmarked) — lower, 1.69%
- Cc1c(B2OC(C)(C)C(C)(C)O2)n(C(=O)OC(C)(C)C)c2ccccc12 — lower, 8.09%
- CCCSc1nsc(NC(=O)CCl)n1 — higher, 27.3%
- C=CC(=O)NCCc1nnnn1-c1ccccc1 — lower, 8.6%
- O=[N+]([O-])c1ccc(C(F)(F)F)c(S(=O)(=O)F)c1 — higher, 102%
- CC(=O)N1CCN(C(=O)CN(C#N)c2ccccc2)CC1 — lower, 6.74%
